Laboratory results reported in article PMC12136788.
Some of the results follow.

B1: chr22:46679111:46679212:+|3pUTR|ENSG00000075240|msi1|FALSE|unique (ssRNA)
RNA: GGGAGUUCUACAGUCCGACGAUCAGGGCCCGGCAGUGCCCAAGGAUGGGUCCGGGGCCUCGGGGCCAAUGAGCGCCUCUUCCUAGGUGCUGGGAUUCAGUCCCCAAACACAGCGGGAGGGGUCCCUGGGGCAGAUGGGGCUUUCAACAGAGGAUUGAGCAUCA
B2: chr5:147393764:147393895:-|3pUTR|ENSG00000113657|msi1_unk|total|mutant (ssRNA)
RNA: GGGAGUUCUACAGUCCGACGAUCUCCAAUGUUACGCUCGCUUGCCCCGCUUUACGAAUAUUGCUUUGUUUUCUGUUUAUGCACCGCCUUGAUUUGUUUGACUCCCCUCCCCCCAUUUACAUGCAUGCAAUCAGACAGGCCACUCAACAGAGGAUUGAGCAUCA
B3: chr10:25598329:25598431:+|CDS|ENSG00000151025|unk|FALSE|unique (ssRNA)
RNA: GGGAGUUCUACAGUCCGACGAUCAUCGAUGUUACAGAAGUCUCUCAGUGUCAUAGCAAGCGCCAAGGAGAAGACUCUUGGAUUAGCUGGGAAAACCCAAACAGCAGGUGUGGAAGAACGCACUAAAUCCCAGAAACCUUUGCCCAACAGAGGAUUGAGCAUCA
B4: chr16:5044585:5044836:-|CDS|ENSG00000153446|control|control|control (ssRNA)
RNA: GGGAGUUCUACAGUCCGACGAUCGAGUAGCUGGGACUACAGGAGCGUGCCACCAUACCUGGCUAAUUUUUAUAUUUUUUUAGUAGAGACAGGGUUUCAUCAUGUUGCUCAUGCUGGUCUCGAACUCCUGAUCUCAAGAGAUCCCAACAGAGGAUUGAGCAUCA
B5: chr9:37441208:37441377:-|CDS|ENSG00000168795|unk|total|mutant (ssRNA)
RNA: GGGAGUUCUACAGUCCGACGAUCAGGGCCGGUGAUAUCCAUAUUUUGGAAGUCACAAAUAACCCCGAGCAUAAGUCCACUUUCCGUAUUUCGAAUUUUCUUAACAAGAGCAGAGGAAAUAACUUUACUGCAAAUCAGAACAAUCAACAGAGGAUUGAGCAUCA
B6: chr19:13097725:13097826:+|3pUTR|ENSG00000008441|msi1|FALSE|unique (ssRNA)
RNA: GGGAGUUCUACAGUCCGACGAUCUGAGCCAGACGCCAACUUGACCCUCACCAGCAUUAUCAGGAGCGCGCUCAGCAAGUUGGUAGUUUCCUCCCCCCUUUCCCGGCGCCCCUCCCGCCCCCAUUCAACAUCUCUCAUCCUAUCCAACAGAGGAUUGAGCAUCA

Each binder was assayed against MSI1 full-length (mouse, UniProt Q61474 1-362) (assay: nsRBNS (natural sequence RNA bind-n-seq); RBNS binding buffer (assumed for nsRBNS): 25 mM Tris pH 7.5, 150 mM KCl, 3 mM MgCl2, 0.01% Triton X-100, 500 ug/ml BSA, 20 U/ml SUPERase-In, 4 C; UNK is unkempt and MSI1 is Musashi-1; names of the RNAs are library labels; protein concentration not given here; high values mean tight binding).
UniProt Q61474, sequence (Q61474 whole entry): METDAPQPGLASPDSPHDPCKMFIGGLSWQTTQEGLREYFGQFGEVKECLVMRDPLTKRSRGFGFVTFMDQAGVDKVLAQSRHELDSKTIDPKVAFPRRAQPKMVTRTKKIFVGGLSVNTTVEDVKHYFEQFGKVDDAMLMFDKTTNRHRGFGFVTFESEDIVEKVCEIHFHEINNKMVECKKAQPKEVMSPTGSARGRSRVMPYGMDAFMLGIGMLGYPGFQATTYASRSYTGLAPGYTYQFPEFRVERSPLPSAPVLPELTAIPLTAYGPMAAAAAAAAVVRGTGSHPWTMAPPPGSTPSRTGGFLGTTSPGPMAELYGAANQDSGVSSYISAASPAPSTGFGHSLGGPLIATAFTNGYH
Work on B1 yielded a binding signal of 0.374 enrichment R.
For B2, the binding signal was 0.792 enrichment R.
With B3 the binding signal was 0.57 enrichment R.
In the case of B4, the binding signal is reported as 4.11 enrichment R.
With B5 the binding signal was 0.204 enrichment R.
B6 showed a binding signal of 0.833 enrichment R.
